Article doi:10.1101/2022.02.03.478898 (bioRxiv, 2022)

Molecular target: mTOR complex 2 (mTORC2), human core complex of mTOR, Rictor, mLST8 and mSin1 (human, UniProt P42345;Q6R327;Q9BVC4;Q9BPZ7)
Test: SEC

- binding result: binds
B1: Inactive human kinase dead Akt1, FLAG-Akt1-K179M (enzyme)
chain: not shown
